# Measurements: the supplement of paper PMC11417369
# Some of the results follow.
# Test system: PF3D7_0420300 AP2 domain 1 (GST-tagged)
# Test: gcPBM binding intensity (ln(normalized median fluorescence intensity)); higher = stronger DNA binding
# Outline: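 Alexa488 anti-GST antibody, scanned at 488 nm, detected GST-tagged P. falciparum DNA-binding domains that had been expressed in E. coli and incubated for 1 h on an Agilent 4 × 180k array. The array carried primer-extended double-stranded 36-bp intergenic genomic probes and negative controls. Binding intensity is the highest Masliner-normalised natural-log median intensity across replicate spots of either orientation of each probe.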
row,Sequence,gcPBM binding intensity (ln)
1,CATACTCTACATAGATGTACTCATTTAAAAAAAAAA [XGTACX_site6945],8.83
2,ATTTTTTTTTTTTTTTTTTTTTTTTTCTCTCTCACT [CACACA_negctrl_site1046],9.11
3,TTTTTTTTTAAGCAAAGGAAATCAAAATAAAAATAT [CACACA_negctrl_site719],8.96
4,TTTTTTTTTTTTTTTTGTACACATAGTAAAAATTAA [XGTACX_site2410],8.59
5,TGTTATTAAAACGTGACACACAATATATATATATAT [CACACA_site3539],9.34
6,TTATAAATTATATATATGACCAATAATTGTGAGCAT [CACACA_negctrl_site725],9.3
7,TATATATATATATGTTGTACTTTTAATTTAAATGTA [XGTACX_site4239],9.32
8,TTTTTTTTTTATTCTACACACATATGTTTTTATATG [CACACA_site182],9.71
9,TTTTTTTTTTGTAGTTGTACGAACTAGCTATTTATG [XGTACX_site692],9.17
10,TTGGCATACAGACACACACACACACGCCCACATATA [CACACA_site6425],10.2
11,ATATATATATATATATGTACATATATATATTTTTTA [XGTACX_site5987],9.25
12,ATCAATACACATATATGTACATATAATAATTATCTT [XGTACX_site662],9.4
13,TTATTTTTTCAAGAATGTACTTACGAATTGTCGTAT [XGTACX_site1363],8.78
14,CAAAAAAACAAACACACACACACACCCATATATATA [CACACA_site3653],10.2
15,TAATTACCATATGGTACACACATATATATATGTATA [CACACA_site3487],9.48
16,TTAACAAATGGACACACACACACACCCAAAAAAAAA [CACACA_site4443],9.91
17,TTATATTAAACAAACACACACATATATATATATATA [CACACA_site2382],9.53
18,TATATATATATATATTGTACATATTGTATATATTGT [XGTACX_site3212],9.3
19,TGTTACATATTATAAATACATTAACTATTATATGTA [CACACA_negctrl_site1735],9.16
20,TATATATATATTTATACACACATTAGTGTATCCATG [CACACA_site5609],9.56
21,TACTATGCCCCATATAAACACACAAATAAAAAGAAT [CACACA_site8857],9.65
22,TATAAACCTACATACACACATACAATAAGTAAAATG [CACACA_site1921],9.91

row,Sequence,gcPBM binding intensity (ln)
1,ATGTATCATAAGAACTGTGTGGTTACAGACACGAAC [GTGCAC_negctrl_site416],9.57
2,CTATGCATTTATAGTGCATGTAAAATATAAGATAAT [TGCATGCA_site71],9.22
3,TATAATTAATTAGAAGTGCATTAGGTAACAACTGTC [GTGCAC_site9746],9.39
4,AACTATATATATAATTCACACATGTTTTAAAATTTT [CACACA_site4971],9.38
5,AACGCAGTTTAATATACACACCAAAAAAAAAAAAAG [CACACA_site5643],9.45
6,ATATATTCTTATTGCTGTACACATATTTTCTAAAAA [XGTACX_site4851],9.28
7,TTTCCTTTTTTAATATGTACACATATTATTATATCT [XGTACX_site3079],9.45
8,AAAAATATAATATAATGTACACATAAACAAAAAAAA [XGTACX_site3658],9.58
9,TAACCACAAAAATAAAATCAAAAAAAAAAAAAAAAA [CACACA_negctrl_site1727],8.34
10,TTTCTTAAATATATGCGTACTCAAAATTGTTCTACA [XGTACX_site7995],8.86
11,AACAGACATACATACACACATACATACAGACATACA [CACACA_site1942],9.9
12,TAAAATAAAACAAACACACACACACCGACACAAAAA [CACACA_site5993],10.2
13,ATATATATATATTTCGCACACATAATCTTATTAAAT [CACACA_site2579],9.4
14,ACATTCTATACATACACACCCACACCCAAAAAAAAA [CACACA_site863],9.7
15,TATATATCAATATACACACACACATATTTATTTATA [CACACA_site6858],10.1
16,CGTAAATTTTTCTAAGTGCATGTTAATTTTTCAATT,9.28
17,TAAATACCTATATGGCGTACTATTATCATAGTATAT [XGTACX_site5423],9.32
18,TATTTATTATGATACTCATATTATTCTATGATTAAA [GTGCAC_negctrl_site486],9.04
19,ATTTTCAAATTAAAATGTACAAATGAAAGAAAGGGA [XGTACX_site7048],9.36
20,GTGAATCCTAAGTGTACACATCTTACAGATATATAT [CACACA_site4836],9.4
21,TGAAATAAAATTTGTACACACATATATATATATATA [CACACA_site586],9.37
22,GCACAAATCATCAAATGTACAGAAAATGCTGTCAAT [XGTACX_site5037],9.14
